The values that follow come from patent US4705777A, “Cationic oligopeptides having microbicidal activity” (priority 1985, dated 1987).

For assay [1], the system named is Staphylococcus aureus 502A. As to the kind of experiment: Bactericidal activity of human neutrophil peptides, S. aureus. The conditions noted are these: 50 μg/ml, 2 hour, 10 mM phosphate buffer pH 7.4 with 1% v/v trypticase soy broth. Here is the method:
(§1) The bactericidal activity of human neutrophil peptides was tested against Staphylococcus aureus 502A, Pseudomonas aeruginosa PA0579, and Escherichia coli ATCC 29648. The organisms were maintained or trypticase soy agar plates and organisms from a single colony were inoculated into 50 ml of trypticase soy broth (Difco, Detroit, Mich.) and cultured overnight at 37° C. One ml of this intermediate culture was diluted with 49 ml of fresh nutrient broth and incubated for an additional 18 h at 37° C. A portion of this stationary phase culture was washed with 10 mM phosphate buffer, pH 7.4, and the concentration of CFU/ml was quantitated by measuring its absorbance at 620 nm with reference to previously determined CFU/ optical density measurements. Incubation mixtures contained 1×10^5 bacterial CFU and 5 μg of HNP1-3 in 100 μl of 10 mM sodium phosphate buffer, pH 7.4. Control mixtures lacked HNP1-3 but contained a small amount of acetic acid (final concentration 0.08 mM), which was used as a vehicle for our HNP stock solutions. This basic incubation mixture was supplemented with various nutrients. Following incubation with HNP1-3 for 2 h at 37° C., timed samples were removed, serially diluted, spread on nutrient agar plates and incubated for 48-74 h to allow full colony development.
The basic incubation medium was 10 mM phosphate buffer, pH 7.4, supplemented with the indicated additions. […]

The test system of assay [2] is Escherichia coli ATCC 29648. The experiment in a line: Bactericidal activity of human neutrophil peptides, E. coli ATCC 29648. Particulars: 50 μg/ml, 2 hour, 10 mM phosphate buffer pH 7.4 with 1% v/v trypticase soy broth. How it is done: as §1
The basis incubation medium was 10 mM phosphate buffer, pH 7.4, supplemented with the indicated additions. […]

Values joined by “and” are separate entries in the source; they are usually repeats but may differ in a detail not shown here. Equal values may be shown once. No end group written: not given here.

As to “ala cys tyr cys arg ile pro ala cys ile ala gly glu arg arg tyr gly thr cys ile tyr gln gly arg leu trp ala phe cys cys [HNP-1]”, the “Decrease (log10 units) in Concentration of Test Organisms Relative to Input, S. aureus 502A” value in assay [1] is 2.14 log10 units and 2.27 log10 units.

Regarding “asp cys tyr cys arg ile pro ala cys ile ala gly glu arg arg tyr gly thr cys ile tyr gln gly arg leu trp ala phe cys cys [HNP-3]”, the “Decrease (log10 units) in Concentration of Test Organisms Relative to Input, E. coli ATCC 29648” value in assay [2] was 3.61 log10 units and 3.47 log10 units.

With “cys tyr cts arg ile pro ala cys ile ala gly glu arg arg tyr gly thr cys ile tyr gln gly arg leu trp ala phe cys cys (CYCRIPACIAGERRYGTCIYQGRLWAFCC; ends and bridges not checked; cysteine pairing not given here; UniProt P59665 66-94, looked up) [HNP-2, human neutrophil peptide HNP-2 (intermediate mobility)]”, the “Decrease (log10 units) in Concentration of Test Organisms Relative to Input, E. coli ATCC 29648” value in assay [2] was 3.43 log10 units and 3.60 log10 units.
